# T1: FLAG-tagged 5MP1 (FL-5MP1) (human, UniProt Q9Y6E2 1-419)
# T1 sequence (looked up): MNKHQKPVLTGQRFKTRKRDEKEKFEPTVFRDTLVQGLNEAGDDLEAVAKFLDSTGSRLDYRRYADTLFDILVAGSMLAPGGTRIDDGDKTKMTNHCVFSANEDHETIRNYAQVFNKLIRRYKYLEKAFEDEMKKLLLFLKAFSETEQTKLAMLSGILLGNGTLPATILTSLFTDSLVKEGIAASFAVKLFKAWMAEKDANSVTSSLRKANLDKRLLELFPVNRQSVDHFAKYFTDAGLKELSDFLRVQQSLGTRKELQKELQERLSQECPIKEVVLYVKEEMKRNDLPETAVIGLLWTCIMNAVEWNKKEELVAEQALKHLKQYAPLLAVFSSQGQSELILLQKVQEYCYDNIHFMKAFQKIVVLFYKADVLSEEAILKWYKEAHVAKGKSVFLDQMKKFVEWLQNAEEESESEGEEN
# What was measured:
# recombinant human eIF5 = recombinant human eIF5 (human, UniProt P55010); assay: pull-down
# [1] = biological target: T1, FLAG-tagged 5MP1 (FL-5MP1); assay: pull-down
binder,measurement,setting,value
GST-fused human eIF2β (GST-eIF2β) (natural protein) not shown,binding result,recombinant human eIF5,binds
same,binding result,[1],binds

# — publication PMC3201852 (Nucleic Acids Research, 2011)
